Source: PubChem BioAssay AID463173 (ICCB-Longwood Screening Facility, Harvard Medical School, 2010)
In all, about 52,000 compounds went through this assay and about 1,700 (3.3%) were called active. Rule as the data show it: active = survival mostly below about 52% (no sharp cut-off); inactive = mostly above about 56%. This is one part of the list.

What follows are compounds tested on Wild type (assay: growth inhibition of S. aureus wild type versus tarO mutant, primary screen, teichoic acid synthesis inhibitors, RN4220, OD600 (AID 463173)). Conditions: S. aureus RN4220 wild type/DeltatarO growth, OD600, 18 h, stronger effect = lower value, screened at 18.75 µg/mL (by protocol).

| Compound | survival |
| --- | --- |
| Cc1ccccc1C(=O)N1c2ncnn2C2(CCCCC2)[C@@H]2CCCC[C@@H]21 | inactive: 82% |
| O=C(O)c1ccc(OCOc2ccc(C(=O)O)c(C(=O)O)c2)cc1C(=O)O | inactive: 102% |
| Cc1ccccc1Cn1c(=O)n(CCC(=O)NCc2ccco2)c(=O)c2sccc21 | inactive: 87% |
| COC(=O)C1=C(C)N(C(C)C)C(=O)C1(NC(=O)c1ccc(C(C)(C)C)cc1)C(F)(F)F (stereo not given) | inactive: 65% |
| CC(C)Nc1nc2c(-c3cccc(Br)c3)nnn2c2ccccc12 | inactive: 74% |
| O=C(NCCn1cc(SCc2ccc(F)cc2)c2ccccc21)c1cccs1 | inactive: 53% |
| CCn1cc(C(=O)N2CCN(c3cc(Cl)ccc3C)CC2)c(=O)c2cc(S(=O)(=O)N3CCCCC3)ccc21 | inactive: 79% |
| CCOc1ccc(C(=O)Nc2ccc(-n3nncc3-c3ccc(OC)cc3)cc2)cc1 | inactive: 74% |
| Cc1ccc(NC(=O)CSc2nc(-c3ccco3)nc3cc(=O)[nH]n23)cc1 | inactive: 84% |
| CCCc1cc(=O)[nH]c(Nc2ccc(OCC)cc2)n1 | inactive: 85% |
| COc1ccccc1NC(=O)C1=C(C)Nc2nc(-c3ccco3)nn2C1c1ccccc1F (stereo not given) | inactive: 78% |
| Cn1nnnc1SCCNCc1ccc(Cl)c(Cl)c1 | inactive: 66% |
| Cc1ccc(Cn2c(C)c3cnn(CC(=O)NCCc4ccc(Cl)cc4)c(=O)c3c2C)cc1 | inactive: 83% |
| Cc1cccc(S(=O)(=O)c2cn(C)c3cc(N4CCN(c5ccccc5)CC4)c(F)cc3c2=O)c1 | inactive: 117% |
| COc1cccc(CCNC(=O)c2cnc3sc(N4CCOCC4)nn3c2=O)c1 | inactive: 125% |
| COc1ccc(CNC(=O)c2ccc(NC(=O)N3CCSc4ncccc43)cc2)cc1 | inactive: 82% |
| O=C(c1cc2sccc2n1Cc1ccccc1)N(Cc1ccco1)Cc1cccs1 | inactive: 123% |
| CCCNC(=O)CN1CCN(c2ccc(NC(=O)c3ccc(OC)cc3)cc2C(=O)O)CC1 | inactive: 87% |
| N#CCN(CC#N)S(=O)(=O)c1ccccc1 | inactive: 99% |
| Cc1ccccc1C(=O)N1CCC(C(=O)Nc2ccc(F)cc2F)CC1 | inactive: 75% |
| CC(C)NC(=O)c1ccccc1NC(=O)c1ccco1 | inactive: 106% |
| Cc1nc(N2CCOCC2)c2c(C(=O)N3CCN(c4ccccc4)CC3)c(C)oc2n1 | inactive: 32% |
| Cc1ccc(S(=O)(=O)c2nc(-c3ccccc3F)oc2NCc2ccccc2)cc1 | inactive: 84% |

| Compound | survival |
| --- | --- |
| CC(=O)OC(C(=O)NCc1ccc(F)cc1)c1ccccn1 (stereo not given) | inactive: 105% |
| Cc1cc2c(cc3c(SCC(=O)Nc4ccc(Cl)cc4F)nncn32)o1 | inactive: 47% |
| CCOC(=O)c1cccc(NC(=O)NC(C)c2c(-n3cccc3)sc3c2CCN(C)C3)c1 (stereo not given) | inactive: 131% |
| O=C(COc1ccccc1F)Nc1ccc(OCc2cc(=O)n3ccccc3n2)cc1 | inactive: 133% |
| COc1ccc(CC(=O)N2CCc3cc(OC)c(OC)cc3C2COc2ccc3c(C)cc(=O)oc3c2)cc1OC (stereo not given) | inactive: 74% |
| COCCCN1C(=O)c2oc3ccccc3c(=O)c2C12C(=O)N(C)c1ccccc12 (stereo not given) | inactive: 91% |
| CCOc1ccc(NC(=O)CCc2c(C)nc3c(-c4ccccc4)c(C)nn3c2C)cc1 | inactive: 130% |
| O=c1ccc2cc(S(=O)(=O)Nc3ccc(OC(F)(F)F)cc3)ccc2[nH]1 | inactive: 88% |
| Cc1ccc(CNC(=O)CSC2=Nc3ccccc3N=C(c3ccc(F)cc3)C2)cc1 | inactive: 69% |
| COC(=O)c1ccc(Cn2c(SCc3ccc(F)cc3)nc3ccncc32)cc1 | inactive: 66% |
| CC(C)CCn1c(=O)c2cccnc2n(CC(=O)Nc2ccccc2F)c1=O | inactive: 93% |
| Cn1c2ccccc2c2cnn(CC(=O)Nc3ccccc3F)c(=O)c21 | inactive: 135% |
| Cc1cc(C)cc(NC(=O)c2c(C)oc3nc(C)nc(N4CCCC4)c23)c1 | inactive: 47% |
| COc1cccc(-c2noc(-c3cc(C(C)C)[nH]n3)n2)c1OC | inactive: 69% |
| COc1cccc(Cn2c(-c3nonc3NC(C)=O)nc3ccccc32)c1 | inactive: 82% |
| CCc1ccc(OCC(=O)Nc2ncn[nH]2)c(Br)c1 | inactive: 74% |
| CCOc1ccc(Nc2nn(-c3ccc(OC(F)(F)F)cc3)nc2C(C)=O)cc1 | inactive: 123% |
| COc1ccccc1CNC(=O)CCNS(=O)(=O)c1ccc2c(c1)oc(=O)n2C | inactive: 83% |
| Cc1cccc(NC(=O)c2sc3nc(-c4cc5ccc(O)cc5oc4=O)[nH]c(=O)c3c2C)c1 | inactive: 82% |
| O=C(Cn1c(=O)nc(-c2ccccc2F)c2cc(Cl)ccc21)NCCCc1ccccc1 | inactive: 78% |
| O=C(COc1ccc(F)cc1)NCc1ccc2c(c1)CCN2C(=O)c1ccccc1 | inactive: 55% |
| CNC(=O)c1ccc2c(c1)N(Cc1ccccc1Cl)C(=O)c1ccccc1S2 | inactive: 70% |
| O=C(CN(C1CCCCC1)S(=O)(=O)c1ccccc1)N1CCCCC1 | inactive: 101% |

| Compound | survival |
| --- | --- |
| Clc1ccc(-c2noc(-c3cccnc3NCc3ccco3)n2)cc1 | inactive: 83% |
| Cc1ccc(-n2nc(C)c3nc(CCC(=O)Nc4cccc(F)c4)c(=O)n(C)c32)cc1 | active: -6% |
| Cc1cccc(CNC(=O)CCCN2C(=O)CCn3nc(-c4cccn4C)cc32)c1 | inactive: 69% |
| CCc1cccc(C)c1Nc1c(-c2ccsc2)nc2ncccn12 | inactive: 66% |
| Cc1ccc2c(c1)c1c3n2CCN(C(=O)c2cccc(C(F)(F)F)c2)C3CCC1 (stereo not given) | active: 5% |
| Cc1ccc(C)c(Cn2c3ccccc3c3cnn(CC(=O)NCCc4ccccc4)c(=O)c32)c1 | inactive: 83% |
| COC(=O)CCC1(C(=O)O)CCOC(C)(C)C1 (stereo not given) | inactive: 112% |
| COc1ccc(N2CCN(Cc3nnc(-c4ccc5c(c4)OCO5)o3)CC2)cc1 | inactive: 81% |
| CCOc1c(Cl)cc(C(=O)N(Cc2ccc(N(C)C)cc2)Cc2ccco2)cc1Cl | inactive: 87% |
| COc1ccc(CNC(=O)C2CCCN(c3nnc(C)c4c(C)n(-c5ccc(C)cc5)nc34)C2)cc1 (stereo not given) | inactive: 70% |
| CCC(Sc1nc2ncccc2o1)C(=O)Nc1ccc(OC)c(OC)c1 (stereo not given) | inactive: 55% |
| CCC1CN(C(=O)N2CCC(C(=O)N3CCN(c4ccccc4F)CC3)CC2)c2ccccc2O1 (stereo not given) | inactive: 110% |
| O=S(=O)(c1ccc(Cl)cc1Cl)n1ccnc1 | inactive: 71% |
| CSc1oc(-c2cccs2)nc1S(=O)(=O)c1ccc(Br)cc1 | inactive: 55% |
| CCOc1ccccc1N(C)C(=O)c1c2c(nc3ccccc13)C(=O)N(C1CCCCC1)C2 | inactive: 90% |
| Cc1oc2c(c1C(=O)NCCO)CCCC2 | inactive: 109% |
| CC(C)C(=O)Nc1sc2c(c1C(N)=O)CCCC2 | inactive: 114% |
| Cc1ccc2c(=O)cc(C(=O)Nc3sc4c(c3C(=O)NCC3CCCO3)CCCC4)oc2c1 (stereo not given) | inactive: 86% |
| COc1ccc(C2CC(=O)c3cc(-c4nc(-c5cccc(Cl)c5)cs4)c(=O)[nH]c3C2)cc1 (stereo not given) | inactive: 67% |
| O=C(COc1cc2oc(=O)c3c(c2cc1Cl)CCC3)N1CCCC1 | inactive: 102% |
| Cc1ccc2oc(=O)n(Cc3ccccc3Cl)c2c1 | active: -2% |
| Cc1ccc2oc(-c3cc(NC(=O)c4oc5ccccc5c4C)ccc3Cl)nc2c1 | inactive: 81% |
| CCCNC(=O)C1CCC(CNS(=O)(=O)c2ccc3c(c2)CC(C)N3C(C)=O)CC1 (stereo not given) | inactive: 105% |

| Compound | survival |
| --- | --- |
| CN(Cc1ccc(F)cc1)S(=O)(=O)c1nnc(NC(=O)c2ccccc2)s1 | inactive: 66% |
| CCc1ccc(OCC(=O)Nc2cc(-c3nc4cc(C)ccc4o3)ccc2C)cc1 | inactive: 81% |
| CC(=O)Nc1ccc(N2C(=O)CC(N3CCCCC3C)C2=O)cc1 (stereo not given) | inactive: 105% |
| CC(C)N(C(=O)CSc1nnc(-c2ccc3c(c2)OCO3)n1C)C(C)C | inactive: 107% |
| CCOc1ccc(Nc2ncnc3scc(-c4ccc(OC)cc4)c23)cc1 | inactive: 73% |
| Cc1ccc(C(=O)NCc2ccccc2)cc1NC(=O)c1nsc2ccccc12 | inactive: 72% |
| Cc1ccc(NC(=O)c2oc3ccccc3c2NC(=O)C23CC4CC(CC(C4)C2)C3)cc1 | inactive: 36% |
| CCC(c1nnnn1CCOC)N(Cc1cc2ccc(OC)cc2[nH]c1=O)C1CCCC1 (stereo not given) | inactive: 109% |
| Cc1cccc(OCC(=O)OC2CCN(C)CC2)c1 | inactive: 109% |
| Cc1c(NC(=O)CN2C(=O)c3ccccc3C2=O)c(=O)n(-c2ccccc2)n1C | inactive: 103% |
| O=C1CCC(=O)c2oc3ccccc3c2N1 | inactive: 109% |
| CCOC(=O)c1c(C)[nH]c(C)c1S(=O)(=O)N1CCC(C(=O)Nc2ccc(C)c(N(C)C)c2)CC1 | inactive: 56% |
| CCc1ccc(N2C(=O)CN(S(=O)(=O)CC)CC2(C)C(=O)NC2CCCCC2)cc1 (stereo not given) | inactive: 72% |
| COc1ccc(-c2nc3n(c2NC(C)(C)C)CCN(C(=O)Cc2ccccc2F)C3)cc1 | inactive: 115% |
| Cc1cc(-c2ccc(C)c(S(=O)(=O)NCc3cccs3)c2)on1 | inactive: 59% |
| Cn1cc(C(=O)NCCc2ccccc2)c(=O)c2cc(S(=O)(=O)N3CCCCC3)ccc21 | inactive: 84% |
| CC(C)(C)OC(=O)N1CCC(c2c(C(=O)N3CCN(Cc4ccccc4)CC3)cnn2-c2ccc(Cl)cc2)CC1 | inactive: 85% |
| O=C(CNC(=O)c1ccccc1)OCc1cc(=O)n2nc(C3CC3)sc2n1 | inactive: 74% |
| CCC(=O)Oc1ccc2c(c1)nc(C)n2CC | inactive: 112% |
| O=c1c2oc3ccccc3c2n(Cc2ccc(Cl)cc2)c(=O)n1Cc1ccccc1 | inactive: 113% |
| CCC1CCCCN1C(=O)CCS(=O)(=O)c1cc2c(cc1C)NC(=O)CO2 (stereo not given) | inactive: 81% |
